Reference: the supplement of paper PMC11417369
Some of the results follow.

system: PF3D7_0420300 AP2 domain 1 (GST-tagged); assay: gcPBM binding intensity (ln(normalized median fluorescence intensity)); higher = stronger DNA binding
Method in brief: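 Each value is the highest Masliner-normalised natural-log median intensity across replicate spots of either orientation of a probe. The probes were primer-extended double-stranded 36-bp intergenic genomic sequences on an Agilent 4 × 180k array, alongside negative controls, exposed for 1 h to GST-tagged P. falciparum DNA-binding domains expressed in E. coli. Bound protein was picked up with Alexa488 anti-GST antibody and scanned at 488 nm.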

Row | Sequence | gcPBM binding intensity (ln)
1 | ACAATTCATTAGAATTGTACAAAAGGATGAAGCGAA [XGTACX_site5242] | 9.4
2 | ATTTAATACAAATACACACACAAATATGTACCTATA [CACACA_site7718] | 9.86
3 | ATTTTTTTTTTTTAATTTGATATTTGCGTTTATATA [CACACA_negctrl_site1305] | 9.36
4 | TATATACATACATATACACACATATATATATATATA [CACACA_site401] | 9.44
5 | TCATTGTTTAATATGTGTCCTCAAAATTTGTTATAT [XGTACX_site677] | 9.41
6 | GTATAAAATATTGATTGTACTTTATTCATTTTTTTT [XGTACX_site2520] | 9.25
7 | TCATATTCCAAGTGTACACATAAATCCCTAATAACA [CACACA_site5167] | 9.34
8 | TCTTGTTAATATATTAAATATATCTATAAATATATA [XGTACX_negctrl_site486] | 9.15
9 | AAAAATAAAACAATTACACACATAACTTTATTTTTA [CACACA_site6563] | 9.58
10 | AAAAGCTTAAAAAATTGTACATAAATGAATAAATAT [XGTACX_site5201] | 9.18
11 | TAAACCTATTATACGGGTACTTATTTGATTCTTATA [XGTACX_site5292] | 9.19
12 | ACAAATGGAACTCCTACAAAAAATTTCCATAATATT [XGTACX_negctrl_site132] | 9.16
13 | ACCACCATATAACATACATGCATCTTTTTTCCCTTC [TGCATGCA_site583] | 9.79
14 | GAACTCATTTAATATTGTACATTCTGATATTTTTTA [XGTACX_site5995] | 9.45
15 | TTTTATATAAATATCACACACACACGCATGTTTTAA [CACACA_site6187] | 9.91
16 | TACAATATACCTACTTGTACACAAAATAAAAGTAGT [XGTACX_site6029] | 9.43
17 | TACACACCTAACTATGCATGCATCAATATAGTGGAT [TGCATGCA_site443] | 9.27
18 | TATTCATGCATATACACACACATATATATATATTTT [CACACA_site3955] | 9.85
19 | AAAAAAAAATTAAACATACACACGTTACTATTTTTA [CACACA_site1687] | 9.31

Row | Sequence | gcPBM binding intensity (ln)
20 | AATGAAAAATTGTAATGTACATAAATAAATAAATAA [XGTACX_site4048] | 9.26
21 | ATCATAATTTATTATACACACAATACGTGACCTATT [CACACA_site6977] | 9.67
22 | TATATGTGATAACACGCACACAAATGTATATAATTT [CACACA_site2593] | 9.45
23 | AAAAAAAAAAAACATACACACATTGAACTTTTATAT [CACACA_site3250] | 9.66
24 | ATAAAATAAAAATTCTGTACAGAATTAAAAAAATAT [XGTACX_site6961] | 9.34
25 | AAAAAAAGTAAAAAGTGTACTTAATATATATATATA [XGTACX_site838] | 9.19
26 | TGTAGCATTTAATTCACACATAAAAAATGTATCCAT [CACACA_site4986] | 9.1
27 | TTAAAATGAAGAAGTGCACACATATATATATTTATA [CACACA_site8063] | 9.37
28 | TTAACACATTTTATGTGTACTCATATGATTTAAAAT [XGTACX_site7516] | 9.11
29 | CTAATAAAAAAAAAAAGTACATATGACAATATAAAG [XGTACX_site1598] | 9.51
30 | AATTTTTTTTTCTTTTGTACGTAAATATGTGTAGGC [XGTACX_site215] | 9.12
31 | TATAAACAGACGAAAACACACATATGTAGATATATA [CACACA_site6371] | 9.74
32 | TATATATTAGTGTTGACACACACAAAAAAAAAAAAA [CACACA_site8392] | 9.32
33 | ATCAGGCAAAATTTTTGTACATATATATTTTATTTT [XGTACX_site1245] | 9.47
34 | TTATAAATGTGCGTAGTGCATAAACAAAAAAAAAAT | 9.6
35 | ATTTTTTTTTTTTTTTTTTTTTTTTATGAATGTTAT [CACACA_negctrl_site1319] | 9.06
36 | ATTTTTTTTTTTTTTTTTTTTTTTTTTTTTTTTTTT [CACACA_negctrl_site1364] | 9.52
37 | TACACCCAGAAATGCACACACATATATATATATATA [CACACA_site5289] | 9.7
38 | ATGAACATGTGACAATGTACATTTATATCTTAAGAA [XGTACX_site4960] | 9.06

Row | Sequence | gcPBM binding intensity (ln)
39 | ATAATATATATATATATGTATGTATATATGTATGTA [GTGCAC_negctrl_site575] | 9.24
40 | TATTCTTATTATTACACACACAATTATATTTACCCC [CACACA_site6381] | 9.84
41 | TATATATATATAATAGCATGCTATATTATATATATA [TGCATGCA_site886] | 8.99
42 | TATTTTTTAATTGTTTCACACATTATTTTTTACATA [CACACA_site6078] | 9.38
43 | TTAACATAAATTGTGTCATTTTTTTTTTTTTTTTTA [CACACA_negctrl_site1221] | 8.96
44 | TTACTTGTTTATTTTTTTTTTTTTTTTTTTTTTGTT [TGCATGCA_negctrl_site103] | 9.11
45 | TAATGGAGAAAATAATGTACTTAGATATTTGTTCTA [XGTACX_site6312] | 9.1
46 | AAGAACAAACAAAATAGTACAATATATATATATATA [XGTACX_site4258] | 9.64
47 | TTTAAATATTTTATAGCATGCTACCAATATGTATAT [TGCATGCA_site291] | 9.15
48 | CATATATAGATATATACACACATATAGATTTTCTTT [CACACA_site6797] | 9.47
49 | AACTATAATTAAAGGATGCACTTGAAGGCATTTCAA [GTGCAC_site9689] | 9.17
50 | TATTCATAACAATGATGTACATATATTTTTTTTTTC [XGTACX_site5619] | 9.14
51 | TATAAAATACTGTATCGATGGGGGAGGGCGCAGGGG [TGCATGCA_negctrl_site250] | 11
52 | AAAAAAAAAAAAAAAAAAAAAAAAAAAGATTATGAG [CACACA_negctrl_site1088] | 9.14
53 | TCAAATGTATATAATTGTACTTATCCTTTTCATTTT [XGTACX_site4879] | 9.32
54 | AAAAATTAGAAACACACACACATATATATATATATT [CACACA_site1042] | 10
55 | TTTTAAGTTTTTGAATGTACGTAATTTGTAAATTCT [XGTACX_site2448] | 9.16
56 | ATATATATATTTAAGGTGCGATTTTGTTATATTTAA | 9.42
